The antibiotic and cytotoxicity screens of Wong et al. (2023)
This is one part of the list.

Key:
HSkMC = human skeletal muscle cells; assay: cytotoxicity call (relative viability < 0.9); conditions: 10 µM
S. aureus RN4220 = assay: growth inhibition call (relative growth <= 0.2); conditions: 50 µM

| Compound | cytotoxicity call (HSkMC) | growth inhibition call (S. aureus RN4220) |
| --- | --- | --- |
| C[C@@H]1CCCCO[C@H](CN(C)C(=O)NC2CCCCC2)[C@@H](C)CN([C@@H](C)CO)C(=O)c2cc(NS(=O)(=O)c3ccccc3)ccc2O1 | inactive | inactive |
| C[C@H]1CN([C@@H](C)CO)S(=O)(=O)c2ccc(C#CC3CC3)cc2O[C@@H]1CN(C)Cc1ccccc1F | inactive | inactive |
| C[C@H](CO)N1C[C@H](C)[C@@H](CN(C)C(=O)NC2CCCCC2)OCCCC[C@H](C)Oc2ccc(NC(=O)Nc3ccc(F)cc3)cc2C1=O | inactive | inactive |
| COc1nc(C#N)nc(N2CCCCC2)n1 | inactive | inactive |
| O=C(C[C@H]1CC[C@@H]2[C@H](COC[C@H](O)CN2S(=O)(=O)c2ccc(F)cc2)O1)N[C@H]1CCN(Cc2ccccc2)C1 | inactive | inactive |
| C[C@H]1CN([C@@H](C)CO)C(=O)c2cc(C#CC3(O)CCCC3)cnc2O[C@@H]1CN(C)S(=O)(=O)c1ccc(F)cc1 | inactive | inactive |
| CCCCOC(=O)c1ccc(O)cc1 | inactive | inactive |
| C[C@@H]1CN([C@H](C)CO)C(=O)c2cc(NS(=O)(=O)c3ccc(F)cc3)ccc2O[C@H]1CN(C)S(=O)(=O)c1ccccc1 | inactive | inactive |
| Cc1cccc(S(=O)(=O)N2C[C@H](O)COC[C@@H]3O[C@H](CC(=O)NCCCN4CCOCC4)CC[C@H]32)c1 | inactive | inactive |
| CC(=O)N(C[C@@H](O)CO)c1c(I)c(C(=O)NC[C@@H](O)CO)c(I)c(C(=O)NC[C@@H](O)CO)c1I | inactive | inactive |
| COc1ccc(CN(C)C[C@@H]2OCCCC[C@@H](C)Oc3ccc(NS(=O)(=O)c4ccc(F)cc4)cc3C(=O)N([C@@H](C)CO)C[C@H]2C)cc1 | inactive | inactive |
| Cc1noc(C)c1S(=O)(=O)Nc1ccc2c(c1)C(=O)N([C@H](C)CO)C[C@H](C)[C@H](CN(C)S(=O)(=O)c1ccc(Cl)cc1)O2 | inactive | inactive |
| CC(C)NC(=O)N(C)C[C@@H]1Oc2c(NS(=O)(=O)c3cccs3)cccc2C(=O)N([C@@H](C)CO)C[C@@H]1C | inactive | inactive |
| C[C@@H]1CCCCO[C@H](CN(C)Cc2ccc(C(=O)O)cc2)[C@H](C)CN([C@@H](C)CO)C(=O)c2cc(NC(=O)Nc3cccc4ccccc34)ccc2O1 | inactive | inactive |
| C[C@@H]1CN([C@@H](C)CO)C(=O)c2cc(NC(=O)Nc3cccc4ccccc34)ccc2O[C@@H](C)CCCCO[C@@H]1CN(C)S(=O)(=O)c1ccc(Cl)cc1 | inactive | inactive |
| COc1ccc(NC(=O)Nc2ccc3c(c2)C(=O)N([C@H](C)CO)C[C@@H](C)[C@H](CN(C)Cc2ccc(Cl)c(Cl)c2)O3)cc1 | inactive | inactive |
| Cc1noc(C)c1NC(=O)N(C)C[C@@H]1Oc2c(NS(=O)(=O)c3ccccc3)cccc2C(=O)N([C@@H](C)CO)C[C@H]1C | inactive | inactive |
| C[C@H]1CN([C@@H](C)CO)C(=O)c2cc(NC(=O)Cc3cn(C)c4ccccc34)ccc2O[C@H]1CN(C)Cc1ccc(-c2ccccc2)cc1 | inactive | inactive |
| C[C@@H]1CN([C@@H](C)CO)C(=O)c2cc(NC(=O)Cn3cnnn3)ccc2O[C@@H]1CN(C)S(=O)(=O)c1ccc(F)cc1 | inactive | inactive |
| OCC1OC(OC2C(O)C(CO)OC2(CO)OC2OC(CO)C(O)C(O)C2O)C(O)C(O)C1O (configuration not stated) | inactive | inactive |
| C[C@H]1CN([C@@H](C)CO)C(=O)c2cc(NC(=O)Nc3ccc(F)cc3)ccc2O[C@@H]1CN(C)Cc1ccc(-c2ccccc2)cc1 | inactive | inactive |
| COc1ccc(CN(C)C[C@@H]2Oc3ccc(NS(C)(=O)=O)cc3CC(=O)N([C@H](C)CO)C[C@@H]2C)cc1 | inactive | inactive |
| COc1ccc(S(=O)(=O)Nc2cccc3c2O[C@H](CN(C)S(=O)(=O)c2ccccc2)[C@@H](C)CN([C@@H](C)CO)C3=O)cc1 | inactive | inactive |
| C[C@@H]1CN([C@@H](C)CO)C(=O)c2c(c3ccccc3n2C)-c2ccccc2CO[C@H]1CN(C)S(C)(=O)=O | inactive | inactive |
| C[C@@H]1CN([C@H](C)CO)C(=O)c2cc(C#Cc3ccccc3F)cnc2O[C@H]1CN(C)C(=O)Cc1ccncc1 | inactive | inactive |
| C[N+](C)(C)CCCC[C@@H]1NC(=O)[C@H]2C[C@@H](C(=O)NCc3ccc(F)cc3)[C@@H](c3ccc(O)cc3)N2C1=O | inactive | inactive |
